The assay deals with T1, Tpx-Flag-6×His (thiol peroxidase) (UniProt P0A862 1-168).
T1 construct: thiol peroxidase (Tpx); active-site Cys61; Plasmid pET-22b-Tpx-Flag-6×His; source: E. coli BL21(DE3), purified (Ni-NTA)
T1 sequence (looked up): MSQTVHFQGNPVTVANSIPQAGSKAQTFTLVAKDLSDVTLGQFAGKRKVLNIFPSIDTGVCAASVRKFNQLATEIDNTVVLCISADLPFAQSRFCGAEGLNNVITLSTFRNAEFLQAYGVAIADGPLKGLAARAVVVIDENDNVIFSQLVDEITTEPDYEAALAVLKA
As to the kind of experiment: cross-linking; in vitro: 10 μM Trx1 and 10 μM Tpx or PAPR in Hepes buffer pH 8.0, 0.5 mM BVSB or PDES, RT, 4 h, stopped with 100 mM DTT; Western blot and MS of cross-linked peptides (trypsin and Glu-C). Conditions: both partners purified. (In general: Immunoblotting shows a protein as a band on a membrane.)

B1: Trx1-6×His (thioredoxin 1) (enzyme)
chain: not shown
notes: thioredoxin 1 (Trx1) of E. coli; active-site Cys33; also called His-tagged Trx1; Trx1 WT; source: E. coli BL21(DE3), purified (Ni-NTA) from pET-22b; also co-expressed from pRSF-Duet1 in live BL21(DE3) cells
With B1, the binding result is “binds”.
